Laboratory results reported in the RNAGym collection of RNA variant scans (doi:10.7554/elife.90254).
Read counts are not given, so values of variants with three or more changes are uncertain.

B1: LINE1-mini (parent)
chain: GGCAGAGCUCAACACAGCGUGGCAAAGUGGCUGUGGCUAGACUGCC

Variants of: B1
Experiment: self-cleavage, relative activity (ratio to wild type); higher = more cleavage; in vitro, sequencing; the parent is a self-cleaving ribozyme
In the case of GGCAGAGCUCAUCACAGCAUGGCAAAGUGGCUAUGACUAGACUUCA [A12U G19A G33A G36A G44U C46A], the self-cleavage is reported as 0.02. GGCAGAGCUCAUCACAGCCUGGCAAAGUGGCUGUGGCUAGCCUGCC [A12U G19C A41C] gave a self-cleavage of 0.03. In the case of GGCAGAGCUCAUCACAGCGUAGCAAAGUGGCUGUGGAUAGACUGCC [A12U G21A C37A], the self-cleavage is reported as 0.01. In the case of GGCAGAGCUCAUCACAGCGUCGCAAAGUGGCUGUGGCUUGACUGCC [A12U G21C A39U], the self-cleavage is reported as 0.06. GGCAGAGCUCAUCACAGCGUCGCAAAGUGGUUGGGGCUAGACUGCC [A12U G21C C31U U34G] gave a self-cleavage of 0.02. For GGCAGAGCUCAUCACAGCGUUGCAGAGUGGCUGUGCCUAGACUGCC [A12U G21U A25G G36C], the self-cleavage was 0.05. For GGCAGAGCUCAUCACAGCGUUGCAAAGUGGCUGUGGCUAUACAGCC [A12U G21U G40U U43A], the self-cleavage was 0.01. Work on GGCAGAGCUCAUCACAGCGUGACAAAGUGGCUGUGGCUACACUGCC [A12U G22A G40C] yielded a self-cleavage of 0.05. Variant GGCAGAGCUCAUCACAGCGUGUCAAAGUGGCUGCGGCUAGACUGCC [A12U G22U U34C] has a self-cleavage of 0.04. For GGCAGAGCUCAUCACAGCGUGGCAAAAUGGCUGUGGGUAGACUGCC [A12U G27A C37G], the self-cleavage was 0.01. Work on GGCAGAGCUCAUCACAGCGUGGCAAAAGGGCUGUGGCUAGACUGCC [A12U G27A U28G] yielded a self-cleavage of 0.03. Variant GGCAGAGCUCAUCACAGCGUGGCAAACUGGCUGUCGCUAGCCUGCC [A12U G27C G35C A41C] has a self-cleavage of 0.02. In the case of GGCAGAGCUCAUCACAGCGUGGCAAAUUAGCUGUGGCUAGACUGCC [A12U G27U G29A], the self-cleavage is reported as 0.18. With GGCAGAGCUCAUCACAGCGUGGCAAAGUACCUGUGGCUAGACUGUC [A12U G29A G30C C45U] the self-cleavage was 0.42. For GGCAGAGCUCAUCACAGCGUGGCAAAGUGACUGUGGCUAGUCUGCC [A12U G30A A41U], the self-cleavage was 0.1. For GGCAGAGCUCAUCACAGCGUGGCAAAGUGUCUGUGGCUAGACAGCC [A12U G30U U43A], the self-cleavage was 0.02. GGCAGAGCUCAUCACAGCGUGGCAAAGUGGCUCUGGCUAGCCUGCC [A12U G33C A41C] gave a self-cleavage of 0.01. GGCAGAGCUCAUCACAGCGUGGCAAAGUGGCUUUGGCUACACUGCC [A12U G33U G40C] showed a self-cleavage of 0.05. In the case of GGCAGAGCUCAUCACAGCGUGGCAAAGUGGCUGUGCCUAGACUGCA [A12U G36C C46A], the self-cleavage is reported as 0. GGCAGAGCUCAUCACAGCGAGGUAAAGUGGCUGUGCCCAGGCUGUC [A12U U20A C23U G36C U38C A41G C45U] showed a self-cleavage of 0.03. Variant GGCAGAGCUCAUCACAGCGAGUCAAAGUGGCUGUGGCUAGACUGCC [A12U U20A G22U] has a self-cleavage of 0.8. With GGCAGAGCUCAUCACAGCGCGGCAUAGUGGCGGUGGCUAGACUGCC [A12U U20C A25U U32G] the self-cleavage was 0.01. GGCAGAGCUCAUCACAGCGCUGCAAAGUGGCGGUUGCUAGACUGCC [A12U U20C G21U U32G G35U] showed a self-cleavage of 0.09. For GGCAGAGCUCAUCACAGCGUGGCAAAGAGACUGUGGCUAGACUGCC [A12U U28A G30A], the self-cleavage was 0.32. GGCAGAGCUCAUCACAGCGUGGCAAAGGGACUGUGGCUAGGCUGCC [A12U U28G G30A A41G] gave a self-cleavage of 0.03. In the case of GGCAGAGCUCAUCACAGCGUGGCAAAGUGGCCGUGGCUAGACUGUC [A12U U32C C45U], the self-cleavage is reported as 0.07. For GGCAGAGCUCAUCACAGCGUGGCAAAGUGGCGGUGGCUCGAGUGCG [A12U U32G A39C C42G C46G], the self-cleavage was 0.01. GGCAGAGCUCAUCACAGCGUGGCAAAGUGGCUGAGGCUAGACUGCG [A12U U34A C46G] gave a self-cleavage of 0.01. Work on GGCAGAGCUCAUCACAGCGUGGCAAAGUGGCUGCGGCUAGAGUGCC [A12U U34C C42G] yielded a self-cleavage of 0.03. In the case of GGCAGAGCUCAUCACAGCGUGGCAAAGUGGCUGCGGCUAGACUACC [A12U U34C G44A], the self-cleavage is reported as 0.03. With GGCAGAGCUCAAACCAGCGUGGCAUAGUGGCUGAGGCUACACUGCC [C13A A14C A25U U34A G40C] the self-cleavage was 0.06. Work on GGCAGAGCUCAAACCAGCGUGGCAAAGUGGCUGUGGCAAGACUGCC [C13A A14C U38A] yielded a self-cleavage of 0. With GGCAGAGCUCAAAGCAGUGAGGCAAAGUGGCUGUGGCUAGACUGCC [C13A A14G C18U U20A] the self-cleavage was 0.05. GGCAGAGCUCAAAGCACCGUGGCAAAGAGGCUGUGGCUAGACUGCC [C13A A14G G17C U28A] showed a self-cleavage of 0.08. GGCAGAGCUCAAAGCAGCGUCGAGAAGUGGCUGUGGCUAGACUGCC [C13A A14G G21C C23A A24G] gave a self-cleavage of 0.03. In the case of GGCAGAGCUCAAAUUAGCGUGGCAAAGUCGCUAUGGCUAGACUGCC [C13A A14U C15U G29C G33A], the self-cleavage is reported as 0.11. GGCAGAGCUCAAAUCAGCGUUGCACAGUGGCUGUGGCUAGACAGCC [C13A A14U G21U A25C U43A] gave a self-cleavage of 0.01. Variant GGCAGAGCUCAAAUCAGCGUGGCAAAAUUGCUGUGGCUAGACUGCC [C13A A14U G27A G29U] has a self-cleavage of 0.09. GGCAGAGCUCAAAACCGCGUGGCACAGUGGCUGUGGCUAGACUCCA [C13A A16C A25C G44C C46A] showed a self-cleavage of 0.02. For GGCAGAGCUCAAAACCGCGUGGCAAAGUGGCUUUGGCUAGACUGCG [C13A A16C G33U C46G], the self-cleavage was 0.03. For GGCAGAGCUCAAAACGGCGUGGCAAUGUGGCUGUGGCUAGACUGCC [C13A A16G A26U], the self-cleavage was 0.02. GGCAGAGCUCAAAACGGCGUGGCAAAGUGGCUGUGGAUAUACUGCC [C13A A16G C37A G40U] showed a self-cleavage of 0.01. For GGCAGAGCUCAAAACGGCGUGGCAAAGUGGCUGUGGCUAGACUGUC [C13A A16G C45U], the self-cleavage was 0.07. Work on GGCAGAGCUCAAAACUGCGUGGCAAAGAUGCUGUGGCUAGACUCCC [C13A A16U U28A G29U G44C] yielded a self-cleavage of 0.1. Variant GGCAGAGCUCAAAACAGCGUGGCCAAGUGGCUGUGGCUAGACUGCU [C13A A24C C46U] has a self-cleavage of 0.01. With GGCAGAGCUCAAAACAGCGUGGCCAAGUUGCUGUUGCUAGACUACC [C13A A24C G29U G35U G44A] the self-cleavage was 0.29. For GGCAGAGCUCAAAACAGCGUGGCCAAGUGGCCGUGGCUACCCUGCC [C13A A24C U32C G40C A41C], the self-cleavage was 0. Work on GGCAGAGCUCAAAACAGCGUGGCGAAGUUGCUGUGGCUAGACUGGC [C13A A24G G29U C45G] yielded a self-cleavage of 0.14. In the case of GGCAGAGCUCAAAACAGCGUGGCUAAGUGGCUGUGGUUAGACUGCC [C13A A24U C37U], the self-cleavage is reported as 0.23. Work on GGCAGAGCUCAAAACAGCGUGGCUAAGUGUCUGUGGCUAGACUGCC [C13A A24U G30U] yielded a self-cleavage of 0. GGCAGAGCUCAAAACAGCGUGGCUAAGACGCUGUGGCUAGUCUCCC [C13A A24U U28A G29C A41U G44C] gave a self-cleavage of 0.02. GGCAGAGCUCAAAACAGCGUGGCAGAGUGGCUGUCGCUAGACUGAC [C13A A25G G35C C45A] gave a self-cleavage of 0.01. For GGCAGAGCUCAAAACAGCGUGGCAGAGGGGCUGUGGCUAGACUACC [C13A A25G U28G G44A], the self-cleavage was 0.02. Work on GGCAGAGCUCAAAACAGCGUGGCAGAGUGGCUGGGGCUAGACUGCC [C13A A25G U34G] yielded a self-cleavage of 0.03. In the case of GGCAGAGCUCAAAACAGCGUGGCAUAGUGGCUGUGGCUAGAGUGCU [C13A A25U C42G C46U], the self-cleavage is reported as 0.09. For GGCAGAGCUCAAAACAGCGUGGCAUAGUGUCUGUGGCUAGACUGCC [C13A A25U G30U], the self-cleavage was 0.06.
